Experimental findings from PubChem BioAssay AID1645882 (National Center for Advancing Translational Sciences (NCATS), 2021) are described below.

Molecules are shown by their SMILES. The campaign covered roughly 16,000 compounds. About 120 (0.75%) were called active. Not shown: some 4% with an inconclusive outcome. Calls follow the shape of the dose curve; as a rule, active = well fitted inhibition curve with a large enough effect; inconclusive = small, poorly fitted or top-dose-only effect; inactive = no such curve, though single readings can be large or run the other way. This is one part of the list.

Sequence of UniProt O95398 (O95398 whole entry, looked up): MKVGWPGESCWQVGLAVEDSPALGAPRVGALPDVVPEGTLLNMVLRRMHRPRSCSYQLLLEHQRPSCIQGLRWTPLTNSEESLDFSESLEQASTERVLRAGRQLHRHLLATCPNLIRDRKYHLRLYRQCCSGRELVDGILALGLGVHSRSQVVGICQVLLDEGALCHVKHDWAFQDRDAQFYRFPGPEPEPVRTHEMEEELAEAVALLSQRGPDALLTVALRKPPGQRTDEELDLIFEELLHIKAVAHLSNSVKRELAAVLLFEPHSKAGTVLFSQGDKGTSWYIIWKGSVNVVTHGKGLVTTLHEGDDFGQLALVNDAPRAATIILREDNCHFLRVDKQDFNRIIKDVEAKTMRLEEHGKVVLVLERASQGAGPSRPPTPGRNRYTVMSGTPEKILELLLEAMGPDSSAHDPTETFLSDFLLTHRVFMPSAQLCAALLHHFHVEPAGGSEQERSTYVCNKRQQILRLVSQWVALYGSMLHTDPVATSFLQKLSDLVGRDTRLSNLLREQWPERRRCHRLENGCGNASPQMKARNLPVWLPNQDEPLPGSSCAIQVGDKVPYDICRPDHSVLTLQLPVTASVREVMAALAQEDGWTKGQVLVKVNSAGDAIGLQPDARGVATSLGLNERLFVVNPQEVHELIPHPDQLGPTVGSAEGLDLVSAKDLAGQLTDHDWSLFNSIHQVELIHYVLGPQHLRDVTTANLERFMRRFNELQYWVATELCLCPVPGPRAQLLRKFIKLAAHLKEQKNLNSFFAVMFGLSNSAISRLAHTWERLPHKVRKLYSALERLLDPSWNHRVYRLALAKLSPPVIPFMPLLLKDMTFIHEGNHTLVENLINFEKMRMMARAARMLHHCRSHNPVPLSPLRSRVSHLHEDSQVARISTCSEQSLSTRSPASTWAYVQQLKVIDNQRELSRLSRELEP

The test has as its target Rap guanine nucleotide exchange factor 3 (Homo sapiens) (UniProt O95398). Kind of test: Validation qHTS for antagonist of cAMP-regulated guanine nucleotide exchange factor 3 (EPAC1).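 Also: plate controls were DMSO for no effect and ATA control for full effect; nearly all actives have a fitted effect of over 75% in size.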 To be noted: EPAC1 Rap1B-BODIPY-GDP exchange, fluorescence; series mostly up to 150 µM; activity change, negative = inhibition: at the top concentration. Summed up:
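EPAC1 (100 nM) mixed with 250 nM RAP1B-BODIPY-GDP and 50 uM GDP; compounds in concentration series, 5 min at room temperature. Fluorescence (ex 480/em 540 nm) read every 5 min for 30 min; normalized to ATA control and DMSO.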
A general note: In qHTS, concentration-response curves come from the screen itself.
Turning to `NC/C=C\C(=O)O`, the activity change, negative = inhibition result was “inactive”.

As to `COc1cc(OC)c(OC)cc1CN1CCCC(n2cc(C(=O)N3CCCCC3)nn2)C1` (stereo unspecified), the “activity change, negative = inhibition” value was inactive: 10.7%.

Turning to `C=C[C@]1(C)Cc2occ(C)c2C[C@H]1C(=C)C(=O)O`, the “activity change, negative = inhibition” value was inactive: -2.87%.

Regarding `COc1ccc(C(=O)C[N+]2(C)CCOCC2)cc1`, the “activity change, negative = inhibition” value was inactive: 20.6%.

Regarding `NS(=O)(=O)c1cc2c(cc1Cl)NC=NS2(=O)=O`, the activity change, negative = inhibition entry was “inactive”.

`Cn1c(=O)c2[nH]c(-c3ccccc3)nc2n(C)c1=O`: the “activity change, negative = inhibition” value is inactive: -2.72% [at 75.8 µM].

Regarding `COc1ccc(C(=O)N2CCC3(CCCN(c4ccncc4)C3)CC2)cc1`, the “activity change, negative = inhibition” value was inactive: -0.242%.

As for `Nc1ccc(S(=O)(=O)Nc2ccccc2)cc1`, the “activity change, negative = inhibition” value was inactive: 1.59%.

Regarding `CC(C)Nc1cccnc1N1CCN(C(=O)c2cc3cc(NS(C)(=O)=O)ccc3[nH]2)CC1`, the “activity change, negative = inhibition” value is inactive: 16.3%.

For `CN(CC[C@@H](Oc1ccc(C(F)(F)F)cc1)c1ccccc1)CC(=O)O`, the “activity change, negative = inhibition” value was inactive: 2.67% [at 75.8 µM].

For `COc1ncc2nc(-c3cccs3)c(=O)n(CCc3ccccc3)c2n1`, the “activity change, negative = inhibition” value was inactive: 5.25%.

As for `O=C(/C=C/c1ccc(O)cc1)c1ccccc1O`, the “activity change, negative = inhibition” value was inactive: -7.71%.

Regarding `COc1ccc2c(c1)-c1nc(-n3ncc(C(=O)NC[C@@H]4CCCN5CCCC[C@H]45)c3C)ncc1CC2`, the “activity change, negative = inhibition” value is inactive: 8.08%.

In the case of `CN[C@@H]1[C@H](O[C@H]2[C@H](O[C@H]3[C@H](O)[C@@H](O)[C@H](N=C(N)N)[C@@H](O)[C@@H]3N=C(N)N)O[C@@H](C)[C@]2(O)CO)O[C@@H](CO)[C@H](O)[C@H]1O`, the “activity change, negative = inhibition” value was inactive: 10.2%.

On to `Cc1onc(-c2ccccc2Cl)c1C(=O)N[C@@H]1C(=O)N2[C@@H]1SC(C)(C)[C@@H]2C(=O)O`, for which the “activity change, negative = inhibition” value was inactive: 22.4% [at 75.8 µM].

On to `C#Cc1cccc(Nc2ncnc3cc(OCCOC)c(OCCOC)cc23)c1`, for which the “activity change, negative = inhibition” value was inactive: 10.8%.

As for `COc1ccccc1CNc1nc(-c2ccoc2)nc2ccccc12`, the “activity change, negative = inhibition” value was inactive: 0.0463%.

As for `C[C@H](CCCC(C)(C)O)[C@H]1CC[C@H]2[C@@H]3CC=C4C[C@@H](O)CC[C@]4(C)[C@H]3CC[C@]12C`, the “activity change, negative = inhibition” value was inactive: 1.84%.

For the compound `CC(=O)N1CCC2(CCCN(Cc3ccc(C#N)cc3)C2)CC1`, the “activity change, negative = inhibition” value was inactive: 8.08%.

`O=C1[C@H]2[C@H](C=CC[C@H]2C(=O)N2CCN(c3ccccc3)CC2)CCN1Cc1ccccc1`: the “activity change, negative = inhibition” value was inactive: 2.85%.

For the compound `COc1ccc(-c2cn(Cc3ccc([N+](=O)[O-])cc3)nn2)cc1`, the “activity change, negative = inhibition” value was inactive: -11.5%.

As for `COc1ccc(CNc2ncnc3ccc(-c4ccccc4OC)cc23)c(OC)c1`, the “activity change, negative = inhibition” value was inactive: -13.9%.

On to `Cc1noc(C)c1-c1cc(Nc2ccc(F)cc2)ncn1`, for which the “activity change, negative = inhibition” value was inactive: 6.59%.

Consider `N#Cc1cccc(-c2nc(NCc3ccccc3)c3ccccc3n2)c1`, for which the “activity change, negative = inhibition” value was inactive: -8.25%.

In the case of `C=C(NC(=O)C(=C)NC(=O)c1csc(C2=NC3c4csc(n4)C4NC(=O)c5csc(n5)C(C(C)(O)C(C)O)NC(=O)C5CSC(=N5)C(=CC)NC(=O)C(C(C)O)NC(=O)c5csc(n5)C3(CC2)NC(=O)C(C)NC(=O)C(=C)NC(=O)C(C)NC(=O)C(C(C)CC)NC2C=Cc3c(C(C)O)cc(nc3C2O)C(=O)OC4C)n1)C(N)=O` (stereo unspecified), the “activity change, negative = inhibition” value is inactive: 5.96%.

For `O=C(c1cccnc1)C1CCCN(Cc2ccc3c(c2)CN(C(=O)c2cnccn2)CCO3)C1` (stereo unspecified), the “activity change, negative = inhibition” value was inactive: 16.1%.

With `CN[C@H](CC(=O)O)C(=O)O`, the activity change, negative = inhibition entry was “inactive”.

Regarding `Cc1csc(SCC(=O)N2CCOc3ccc(C(O)C4CCCCC4)cc3C2)n1` (stereo unspecified), the “activity change, negative = inhibition” value is inactive: -7.38%.

Turning to `CCCCCCCC/C=C\C/C=C\C/C=C\CCCC(=O)O`, the activity change, negative = inhibition is inactive: 9.96% [at 15.3 µM].

For the compound `CC(=O)NCCNc1ncncc1-c1ccccc1C(F)(F)F`, the “activity change, negative = inhibition” value was inactive: 4.85%.

Turning to `CN(Cc1ccco1)c1ccnc(-c2ccoc2)n1`, the “activity change, negative = inhibition” value is inactive: 15.8%.

Turning to `CCC1CN(CCNC(=O)c2scc3c2OCCO3)Cc2cc(OC)ccc2O1` (stereo unspecified), the “activity change, negative = inhibition” value is inactive: 22.2%.

For `C/C(=C(/CCO)SSCC1CCCO1)N(C=O)Cc1cnc(C)nc1N` (stereo unspecified), the activity change, negative = inhibition entry was “inactive”.

In the case of `CN(C)C(=O)c1ccc(/C=C/c2ccnc3ccccc23)cc1`, the “activity change, negative = inhibition” value was inactive: -15.1%.

Turning to `CCC1CN(CCNC(=O)c2cccc(C(=O)OC)c2)Cc2cc(OC)ccc2O1` (stereo unspecified), the “activity change, negative = inhibition” value was inactive: 5.67%.

For the compound `NS(=O)(=O)c1cc2c(cc1Cl)NC(C(Cl)Cl)NS2(=O)=O` (stereo unspecified), the activity change, negative = inhibition entry is “inactive”.

For `C[C@@H]1/C(=N/O)CC2C[C@@H]1C2(C)C`, the “activity change, negative = inhibition” value is inactive: 18.2%.

With `CN1CCN(C2Cc3ccccc3Sc3ccc(Cl)cc32)CC1` (stereo unspecified), the activity change, negative = inhibition entry is “inactive”.

With `CCC(=O)Nc1ccc(O)cc1`, the “activity change, negative = inhibition” value is inactive: 15.8%.

For `COc1ccccc1CNc1ccnc(-c2ccccc2CN(C)C)n1`, the “activity change, negative = inhibition” value is inactive: 3.31%.

`C1CCN2C[C@H]3C[C@H](CN4CCCCC34)C2C1` (stereo partly specified): the activity change, negative = inhibition entry is “inactive”.

`CN[C@@H]1[C@H](O)[C@H](NC)[C@H]2O[C@@]3(O)C(=O)C[C@@H](C)O[C@H]3O[C@@H]2[C@H]1O`: the activity change, negative = inhibition entry was “inactive”.

On to `CCOC(=O)CN(C)C(=O)c1cnn(-c2ncc3c(n2)-c2ccccc2CCC3)c1C`, for which the “activity change, negative = inhibition” value was inactive: 5.18%.

On to `c1ccc(CNc2ccnc(-c3ccc4c(c3)OCO4)n2)cc1`, for which the “activity change, negative = inhibition” value was inactive: 8.61%.

Turning to `CC[C@H]1NC(=O)[C@@H](NC(=O)c2ncccc2O)[C@@H](C)OC(=O)[C@H](c2ccccc2)NC(=O)[C@@H]2CC(=O)CCN2C(=O)[C@H](Cc2ccccc2)N(C)C(=O)[C@@H]2CCCN2C1=O`, the “activity change, negative = inhibition” value is inactive: 18.3%.

On to `Cc1ccnc2ccc(N)cc12`, for which the “activity change, negative = inhibition” value is inactive: 18.2%.

On to `CCOC(=O)COc1ccc2c(=O)cc(-c3ccccc3)oc2c1`, for which the activity change, negative = inhibition entry is “inactive”.

For the compound `C/C(N[C@@H]1CSCC1O)=C1/C(=O)CC2[C@@H]1C2(C)C` (stereo partly specified), the “activity change, negative = inhibition” value is inactive: 8.88%.

`COc1c(CC(=O)c2cc3c(cc2O)OC(C)(C)C(O)C3)ccc2c1C=CC(C)(C)O2` (stereo unspecified): the “activity change, negative = inhibition” value was inactive: -15.3%.

Regarding `CC(C)/C(O)=C1/C(=O)OC(c2ccoc2)[C@@]2(C)C(O)C(O)[C@@]34OC5(C)OC67CC(C)(C(O)[C@@]6(O)C(O)[C@@]3(O5)C12)C(CC(=O)O)[C@@]74C` (stereo partly specified), the “activity change, negative = inhibition” value is inactive: 9.26%.

As for `COc1cc2c(Nc3ccc(Br)cc3F)ncnc2cc1OCC1CCN(C)CC1`, the “activity change, negative = inhibition” value was inactive: 12.5%.

Turning to `Cc1noc(C)c1C(=O)N1CCC2(CCCN(C(=O)Nc3cccc(F)c3)C2)CC1`, the “activity change, negative = inhibition” value is inactive: 19.3%.

In the case of `CS(=O)(=O)N1CCC2(CCN(Cc3ccc(C#N)cc3)CC2)CC1`, the “activity change, negative = inhibition” value was inactive: 19%.

Turning to `CCCCCCCC/C=C\CCCCCCCC(=O)OC[C@H](CO)OC(C)=O`, the activity change, negative = inhibition is inactive: 1.23% [at 15.3 µM].

As for `O=C(Nc1ccccc1)N1CCC2(CCNCC2)CC1`, the “activity change, negative = inhibition” value is inactive: 14%.

Turning to `CSc1cc2c(cc1C(F)(F)F)N(C(=O)Nc1cccnc1)CC2`, the “activity change, negative = inhibition” value was inactive: 6.12%.

Consider `CCCCC`, for which the “activity change, negative = inhibition” value is inactive: 3%.

`c1cncc(CNc2ncncc2-c2ccoc2)c1`: the “activity change, negative = inhibition” value was inactive: 9.34%.

Consider `C/C(=C\c1ccco1)CN1CCOc2ccc(CN3CCC(Oc4cccnc4)CC3)cc2C1`, for which the “activity change, negative = inhibition” value was inactive: 10.8%.

Take `CC1(C)OC[C@@H]2O[C@@]3(C(=O)O)OC(C)(C)O[C@H]3[C@@H]2O1`: the “activity change, negative = inhibition” value is inactive: 6.31%.

As to `CO[C@H]1[C@H](NC(=O)C(C)C)c2ccccc2C12CCN(Cc1c(C)nn(C)c1Cl)CC2`, the “activity change, negative = inhibition” value was inactive: 10%.
